# Test results from the supplement of paper PMC8728848.
# Some of the results follow.
# Legend:
# Assay in all cases: glycan array binding signal (z-score within array); higher = stronger binding
# Conditions in all cases: glycan notation: IUPAC condensed, linker removed
# [1] = molecular target: Fuc(a1-2)Gal
# In short: (§1)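 The binding signal is a Z-score computed within each array. Data were drawn from 3228 arrays in the Consortium for Functional Glycomics database, restricted to those with a known protein sequence. Scores were averaged over arrays of the same protein sequence at different concentrations or buffers, and over linkers, and negative values can be taken as non-binding.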
# [2] = molecular target: Fuc(a1-2)Gal(b1-3)GalNAc
# In short: as §1
# [3] = molecular target: Fuc(a1-2)Gal(b1-3)GalNAc(a1-3)[Fuc(a1-2)]Gal(b1-4)Glc
# In short: as §1
# [4] = molecular target: Fuc(a1-2)Gal(b1-3)GalNAc(a1-3)[Fuc(a1-2)]Gal(b1-4)GlcNAc
# In short: as §1
# [5] = molecular target: Fuc(a1-2)Gal(b1-3)GalNAc(b1-3)Gal
# In short: as §1
# [6] = molecular target: Fuc(a1-2)Gal(b1-3)GalNAc(b1-3)Gal(a1-4)Gal(b1-4)Glc
# In short: as §1
# [7] = molecular target: Fuc(a1-2)Gal(b1-3)GalNAc(b1-4)[Neu5Ac(a2-3)]Gal(b1-4)Glc
# In short: as §1
# [8] = molecular target: Fuc(a1-2)Gal(b1-3)GlcNAc
# In short: as §1
# [9] = molecular target: Fuc(a1-2)Gal(b1-3)GlcNAc(b1-2)Man(a1-3)[Fuc(a1-2)Gal(b1-3)GlcNAc(b1-2)Man(a1-6)]Man(b1-4)GlcNAc(b1-4)GlcNAc
# In short: as §1
# [10] = molecular target: Fuc(a1-2)Gal(b1-3)GlcNAc(b1-2)Man(a1-3)[Fuc(a1-2)Gal(b1-3)GlcNAc(b1-2)Man(a1-6)]Man(b1-4)GlcNAc(b1-4)[Fuc(a1-6)]GlcNAc
# In short: as §1
# [11] = molecular target: Fuc(a1-2)Gal(b1-3)GlcNAc(b1-3)Gal(b1-4)Glc
# In short: as §1
# [12] = molecular target: Fuc(a1-2)Gal(b1-3)GlcNAc(b1-3)GalNAc
# In short: as §1
# [13] = molecular target: Fuc(a1-2)Gal(b1-3)GlcNAc(b1-3)[Fuc(a1-2)Gal(b1-3)GlcNAc(b1-6)]GalNAc
# In short: as §1
# [14] = molecular target: Fuc(a1-2)Gal(b1-3)GlcNAc(b1-3)[Gal(b1-4)GlcNAc(b1-6)]Gal(b1-4)Glc
# In short: as §1
# [15] = molecular target: Fuc(a1-2)Gal(b1-3)GlcNAc(b1-3)[Neu5Ac(a2-6)Gal(b1-4)GlcNAc(b1-6)]Gal(b1-4)Glc
# In short: as §1
# [16] = molecular target: Fuc(a1-2)Gal(b1-3)GlcNAc6S
# In short: as §1
# [17] = molecular target: Fuc(a1-2)Gal(b1-3)[Fuc(a1-4)]GlcNAc
# In short: as §1
# [18] = molecular target: Fuc(a1-2)Gal(b1-3)[Fuc(a1-4)]GlcNAc(b1-2)Man(a1-3)[Fuc(a1-2)Gal(b1-3)[Fuc(a1-4)]GlcNAc(b1-2)Man(a1-3)]Man(b1-4)GlcNAc(b1-4)GlcNAc
# In short: as §1
# [19] = molecular target: Fuc(a1-2)Gal(b1-3)[Fuc(a1-4)]GlcNAc(b1-2)Man(a1-3)[Fuc(a1-2)Gal(b1-3)[Fuc(a1-4)]GlcNAc(b1-2)Man(a1-6)]Man(b1-4)GlcNAc(b1-4)[Fuc(a1-6)]GlcNAc(b1-4)[Fuc(a1-6)]GlcNAc
# In short: as §1
# [20] = molecular target: Fuc(a1-2)Gal(b1-3)[Fuc(a1-4)]GlcNAc(b1-3)[Fuc(a1-3)[Gal(b1-4)]GlcNAc(b1-6)]Gal(b1-4)Glc
# In short: as §1
# [21] = molecular target: Fuc(a1-2)Gal(b1-3)[Fuc(a1-4)]GlcNAc(b1-3)[Gal(b1-4)GlcNAc(b1-6)]Gal(b1-4)Glc
# In short: as §1
# [22] = molecular target: Fuc(a1-2)Gal(b1-4)Fuc(a1-3)]GlcNAc(b1-2)Man(a1-3)[Fuc(a1-2)Gal(b1-4)[Fuc(a1-3)]GlcNAc(b1-2)Man(a1-6)]Man(b1-4)GlcNAc(b1-4)GlcNAc
# In short: as §1
# [23] = molecular target: Fuc(a1-2)Gal(b1-4)Glc
# In short: as §1
# [24] = molecular target: Fuc(a1-2)Gal(b1-4)Glc6S
# In short: as §1
# [25] = molecular target: Fuc(a1-2)Gal(b1-4)GlcNAc
# In short: as §1
# [26] = molecular target: Fuc(a1-2)Gal(b1-4)GlcNAc(b1-2)Man
# In short: as §1
# [27] = molecular target: Fuc(a1-2)Gal(b1-4)GlcNAc(b1-2)Man(a1-3)[Fuc(a1-2)Gal(b1-4)GlcNAc(b1-2)Man(a1-6)]Man(b1-4)GlcNAc(b1-4)GlcNAc
# In short: as §1
# [28] = molecular target: Fuc(a1-2)Gal(b1-4)GlcNAc(b1-2)Man(a1-3)[Fuc(a1-2)Gal(b1-4)GlcNAc(b1-2)Man(a1-6)]Man(b1-4)GlcNAc(b1-4)[Fuc(a1-6)]GlcNAc
# In short: as §1
# [29] = molecular target: Fuc(a1-2)Gal(b1-4)GlcNAc(b1-2)[Fuc(a1-2)Gal(b1-4)GlcNAc(b1-4)]Man(a1-3)[Fuc(a1-2)Gal(b1-4)GlcNAc(b1-2)Man(a1-6)]Man(b1-4)GlcNAc(b1-4)GlcNAc
# In short: as §1
# [30] = molecular target: Fuc(a1-2)Gal(b1-4)GlcNAc(b1-3)Gal(b1-4)GlcNAc
# In short: as §1
binder,measurement,setting,value
Di AAL2 (Agrocybe aegerita) (protein) MTSNVITQDLPIPVASRGFADIVGFGLDGVVIGRNAVNLQPFLAVKNFAQNAGGWLTTKHVRLIADTTGTGKGDIVGFGNAGVYVSVNNGKNTFADPPKMVIANFGYDAGGWRVEKHLRYLADIRKIGRADIIGFGEKGVLVSRNNGGLNFGPATLVLKDFGYDAGGWRLDRHLRFLADVTGNGHLDIVGFGDKHVFISRNNGDGTFAPAKSVIDNFCIDAGGWKIGDHPRFVADLTGDGTADIIGCGKAGCWVALNNGGGVFGQVKLVINDFGTDKGWQAAKHPRFIADLTGNGRGDVVGFGNAGVYVALNNGDGTFQSAKLVLKDFGVQQGWTVSKHRRFVVDLTGDGCADIIGFGEKETLVSYNDGKGNFGPVKALTNDFSFSGGKWAPETTVCWMANLDSSRHPAPAPMTSNVITQDLPIPVASRGFADIVGFGLDGVVIGRNAVNLQPFLAVKNFAQNAGGWLTTKHVRLIADTTGTGKGDIVGFGNAGVYVSVNNGKNTFADPPKMVIANFGYDAGGWRVEKHLRYLADIRKIGRADIIGFGEKGVLVSRNNGGLNFGPATLVLKDFGYDAGGWRLDRHLRFLADVTGNGHLDIVGFGDKHVFISRNNGDGTFAPAKSVIDNFCIDAGGWKIGDHPRFVADLTGDGTADIIGCGKAGCWVALNNGGGVFGQVKLVINDFGTDKGWQAAKHPRFIADLTGNGRGDVVGFGNAGVYVALNNGDGTFQSAKLVLKDFGVQQGWTVSKHRRFVVDLTGDGCADIIGFGEKETLVSYNDGKGNFGPVKALTNDFSFSGGKWAPETTVCWMANLDSSRH,glycan array binding signal (z-score),[1],-0.316
same,glycan array binding signal (z-score),[2],-0.337
same,glycan array binding signal (z-score),[3],-0.326
same,glycan array binding signal (z-score),[4],-0.31
same,glycan array binding signal (z-score),[5],-0.332
same,glycan array binding signal (z-score),[6],-0.332
same,glycan array binding signal (z-score),[7],-0.317
same,glycan array binding signal (z-score),[8],-0.34
same,glycan array binding signal (z-score),[9],-0.288
same,glycan array binding signal (z-score),[10],-0.315
same,glycan array binding signal (z-score),[11],-0.334
same,glycan array binding signal (z-score),[12],-0.312
same,glycan array binding signal (z-score),[13],-0.287
same,glycan array binding signal (z-score),[14],-0.327
same,glycan array binding signal (z-score),[15],-0.337
same,glycan array binding signal (z-score),[16],-0.299
same,glycan array binding signal (z-score),[17],-0.34
same,glycan array binding signal (z-score),[18],-0.319
same,glycan array binding signal (z-score),[19],-0.293
same,glycan array binding signal (z-score),[20],-0.337
same,glycan array binding signal (z-score),[21],-0.328
same,glycan array binding signal (z-score),[22],-0.035
same,glycan array binding signal (z-score),[23],-0.336
same,glycan array binding signal (z-score),[24],-0.331
same,glycan array binding signal (z-score),[25],-0.344
same,glycan array binding signal (z-score),[26],-0.307
same,glycan array binding signal (z-score),[27],-0.322
same,glycan array binding signal (z-score),[28],-0.301
same,glycan array binding signal (z-score),[29],-0.328
same,glycan array binding signal (z-score),[30],-0.337
